# In PubChem BioAssay (NCATS):
# Several values for one entry are separate records, joined by “and”; a condition that tells them apart may be missing. Equal values may be shown once. The shares of active, inactive and inconclusive entries below differ from those in the screen. For some of these results: A potency beside an inconclusive call is a rough fit, not a confirmed value. Activity calls are given as the source filed them. Unless noted, calls come from the whole dose curve; as a rule, active = well fitted curve in the direction sought with a large enough effect; inconclusive = small, poorly fitted or top-dose-only effect, or another doubt; inactive = no such curve, though single readings can be large; an effect the other way counts as inactive or inconclusive.
# How the values were obtained:
# [1] = P-glycoprotein substrates identified in KB-8-5-11 adenocarcinoma cell line, qHTS therapeutic library screen (AID 1346987); note: nearly all actives have a fitted effect of over 65% in size
# Summary of the method: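 In this qHTS, P-gp-rich KB-8-5-11 cells received library compounds across a concentration range. Viability was quantified by luminescence after 72 h at 37 degree C.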
# [2] = tested on: Zika virus NS2B-NS3 protease (unlinked complex); assay: Primary screen GU Rhodamine qHTS for Zika virus inhibitors: Unlinked NS2B-NS3 protease assay (AID 1347159); note: nearly all actives have a fitted effect of over 60% in size
# Summary of the method: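 Buffer 10 mM Tris-HCl pH 8.0, 0.01% Tween 20. Unlinked protease 25 nM; compound preincubation 15 min, RT, protected from light. Substrate Rhod110, 1.5 microM; ~15% conversion in 15 min.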
# [3] = molecular target: Cytochrome P450 2D6 (Homo sapiens) (UniProt P10635); assay: Cytochrome P450 family 2 subfamily D member 6 (CYP2D6) small molecule antagonists: luciferase biochemical (cell-free) qHTS assay (AID 1645840; active = well fitted curve in the direction sought with a large enough effect in the repeat runs; inconclusive = weak or mixed curves; inactive = no such curve, though single readings can be large; an effect the other way counts as inactive or inconclusive; note: nearly all actives have a fitted effect of over 55% in size)
# UniProt P10635, sequence (P10635 whole entry, looked up): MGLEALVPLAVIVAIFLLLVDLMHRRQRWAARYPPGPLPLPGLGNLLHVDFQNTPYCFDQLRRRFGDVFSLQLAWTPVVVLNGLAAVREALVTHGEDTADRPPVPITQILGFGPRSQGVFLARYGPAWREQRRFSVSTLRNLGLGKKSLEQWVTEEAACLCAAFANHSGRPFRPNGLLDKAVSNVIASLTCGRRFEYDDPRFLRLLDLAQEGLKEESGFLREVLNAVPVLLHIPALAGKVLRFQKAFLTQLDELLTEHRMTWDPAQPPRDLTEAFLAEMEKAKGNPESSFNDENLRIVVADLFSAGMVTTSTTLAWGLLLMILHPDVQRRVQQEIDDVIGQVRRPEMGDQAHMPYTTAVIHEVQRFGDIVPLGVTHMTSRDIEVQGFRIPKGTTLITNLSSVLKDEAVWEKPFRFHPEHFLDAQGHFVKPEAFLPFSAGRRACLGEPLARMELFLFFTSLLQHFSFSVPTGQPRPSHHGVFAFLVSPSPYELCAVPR
# Summary of the method: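 P450-Glo CYP2D6 system: proluciferin substrate converted by enzyme to luciferin, read by luminescence proportional to activity. Enzyme-substrate mix with compound 10 min at room temperature, then NADPH regeneration 1 h before detection reagent.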
# HEK293 = assay: Cytotoxic Profiling of Annotated Libraries Using Quantitative High-Throughput Screening (AID 1296008); conditions: Five cell lines viability, CellTiter-Glo ATP luminescence, 48-72 h; max response: hits give low values; note: nearly all actives have a fitted effect of over 60% in size
# Summary of the method: (§1)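 Cytotoxicity was measured as CellTiter-Glo ATP luminescence, read after 10 min at room temperature. Compound treatment of the cells lasted 48 or 72 hr at 37 degrees Celsius in a qHTS format.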
# KB-3-1 = assay: as above; conditions: Five cell lines viability, CellTiter-Glo ATP luminescence, 48-72 h; max response: hits give low values
# Summary of the method: as §1
# C33A = assay: Primary qHTS to identify gynecologic anti-cancer compounds using libraries of approved drugs and bioactive compounds (AID 1345084); conditions: Gynecologic cancer cell panel viability, ATPlite luminescence, 48 h; series mostly up to 57.5 µM; note: nearly all actives have a fitted effect of over 55% in size
# Summary of the method: (§2)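 Luminescence from the ATPlite ATP-monitoring reagent indicates viable cell number; lower signal means cytotoxicity. Cells received compound 16 h after seeding and were exposed for 48 h across five concentrations.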
# CASKI = assay: as above; conditions: Gynecologic cancer cell panel viability, ATPlite luminescence, 48 h; activity change, negative = cytotoxicity: at 57.5 µM (top of the series)
# Summary of the method: as §2
# HeLa = assay: as above; conditions: Gynecologic cancer cell panel viability, ATPlite luminescence, 48 h; series mostly up to 57.5 µM
# Summary of the method: as §2
# [4] = Primary qHTS for inhibitors of nuclear receptor binding SET domain protein 2 (NSD2) in an RCH-ACV wild type WT cells (2C) (AID 1645877); conditions: activity change, negative = cell killing: at 44.9 µM (top of the series); note: nearly all actives have a fitted effect of over 70% in size
# CAOV3 = assay: Primary qHTS to identify gynecologic anti-cancer compounds using libraries of approved drugs and bioactive compounds (AID 1345084); conditions: Gynecologic cancer cell panel viability, ATPlite luminescence, 48 h; series mostly up to 57.5 µM; note: nearly all actives have a fitted effect of over 55% in size
# Summary of the method: as §2
# JEG-3 = assay: as above; conditions: Gynecologic cancer cell panel viability, ATPlite luminescence, 48 h; series mostly up to 57.5 µM
# Summary of the method: as §2
# PA-1 = assay: as above; conditions: Gynecologic cancer cell panel viability, ATPlite luminescence, 48 h; series mostly up to 57.5 µM
# Summary of the method: as §2
# SKOV3 = assay: as above; conditions: Gynecologic cancer cell panel viability, ATPlite luminescence, 48 h; series mostly up to 57.5 µM
# Summary of the method: as §2
# [5] = Primary qHTS for inhibitors of nuclear receptor binding SET domain protein 2 (NSD2) in an isogenic RCH-ACV NSD2 p.E1099K mutant (9B) (AID 1645876); note: nearly all actives have a fitted effect of over 70% in size
# Hek293T = assay: Primary qHTS to identify gynecologic anti-cancer compounds using libraries of approved drugs and bioactive compounds (AID 1345084); conditions: Gynecologic cancer cell panel viability, ATPlite luminescence, 48 h, control line for the selectivity index; series mostly up to 57.5 µM; note: nearly all actives have a fitted effect of over 55% in size
# Summary of the method: as §2
# OV90 = assay: as above; conditions: Gynecologic cancer cell panel viability, ATPlite luminescence, 48 h; series mostly up to 57.5 µM
# Summary of the method: as §2
# Tov-21-G = assay: as above; conditions: Gynecologic cancer cell panel viability, ATPlite luminescence, 48 h; activity change, negative = cytotoxicity: at 57.5 µM (top of the series)
# Summary of the method: as §2
# Tov112D = assay: as above; conditions: Gynecologic cancer cell panel viability, ATPlite luminescence, 48 h; activity change, negative = cytotoxicity: at 57.5 µM (top of the series)
# Summary of the method: as §2
# NIH3T3 = assay: Cytotoxic Profiling of Annotated Libraries Using Quantitative High-Throughput Screening (AID 1296008); conditions: Five cell lines viability, CellTiter-Glo ATP luminescence, 48-72 h; max response: hits give low values; note: nearly all actives have a fitted effect of over 60% in size
# Summary of the method: as §1
# Potency is the fitted concentration of half-maximal effect; tags give direction and shape of the fitted curve.
Structure (SMILES),Potency [1],Potency [2],Potency [3],Potency (HEK293),Potency (KB-3-1),Potency (C33A),Potency (CASKI),Potency (HeLa),Potency [4],Potency (CAOV3),Potency (JEG-3),Potency (PA-1),Potency (SKOV3),Potency [5],Potency (Hek293T),Potency (OV90),Potency (Tov-21-G),Potency (Tov112D),Potency (NIH3T3)
CN(C)C(=O)C(=O)c1cn(C)c2cc(Cl)c(C(=O)N3CCC(Cc4ccc(F)cc4)CC3)cc12,"inconclusive: 29.1 µM [inhibitor, single point]",inactive,"inconclusive: 19 µM [inhibitor, single point]","inconclusive: 18.4 µM [inhibitor, single point]","inconclusive: 29.1 µM [inhibitor, single point]",inactive,inactive,inactive,,,,,,,,,,,
CC(C)(O)C(=O)N1CCN(c2ccc(C(F)(F)F)c(C3=C(c4c[nH]c5ccccc45)C(=O)NC3=O)c2)CC1,,,active: 21.3 µM,"inconclusive: 29.1 µM [inhibitor, single point]","inconclusive: 23.1 µM [inhibitor, partial curve, poor fit]","inconclusive: 2.82 µM [rising, single point]",,"inconclusive: 2.51 µM [rising, full curve, poor fit]",active: 1.03 µM,inactive,"inconclusive: 8.91 µM [rising, partial curve]",inactive,"inconclusive: 39.8 µM [cytotoxic, single point]",,,,,,
COC(=O)N1CCC(n2ncc3c(N4CCOCC4)nc(-c4ccc(NC(=O)Nc5ccc(CO)cc5)cc4)nc32)CC1,active: 2.59 µM,"inconclusive: 35.5 µM [inhibitor, full curve]",,active: 0.058 µM,active: 0.231 µM,"inconclusive: 1 µM [cytotoxic, partial curve, poor fit]",active: 1.12 µM,active: 2.51 µM,,"inconclusive: 11.2 µM [cytotoxic, partial curve, poor fit]",active: 15.8 µM,active: 2.51 µM,active: 0.282 µM,active: 16.3 nM,active: 0.282 µM,active: 0.794 µM,"inconclusive: 0.141 µM [cytotoxic, full curve, poor fit]","inconclusive: 0.178 µM [cytotoxic, full curve, poor fit]",
COc1cc2ncnc(Oc3cccc(NC(=O)Nc4cc(C(C)(C)C(F)(F)F)on4)c3)c2cc1OC,"inconclusive: 20.6 µM [inhibitor, single point]","inconclusive: 44.7 µM [inhibitor, partial curve]","inconclusive: 26.8 µM [inhibitor, single point]","inconclusive: 25.9 µM [inhibitor, single point]","inconclusive: 29.1 µM [inhibitor, single point]",,,,"inconclusive: 1.45 µM [inhibitor, full curve]",,,,,"inconclusive: 2300 nM [inhibitor, full curve]",,,,inactive,"inconclusive: 20.6 µM [inhibitor, single point]"
C[C@]12CCC(=O)C=C1[C@@H]1C[C@@H]1[C@H]1[C@@H]3[C@@H]4C[C@@H]4[C@@]4(CCC(=O)O4)[C@@]3(C)CC[C@@H]12,,,"inconclusive: 43.6 µM [inhibitor, single point] and inconclusive: 12 µM [inhibitor, partial curve, poor fit]","inconclusive: 33.5 µM [inhibitor, single point]","inconclusive: 32.6 µM [inhibitor, single point]","inconclusive: 17.8 µM [cytotoxic, single point]",,,"inconclusive: 18.8 µM [inhibitor, single point] and inconclusive: 26.3 µM [inhibitor, partial curve]",,,"inconclusive: 39.8 µM [cytotoxic, single point]",,"inconclusive: 33.5 µM [inhibitor, single point] and inconclusive: 20.9 µM [inhibitor, partial curve]",,"inconclusive: 22.4 µM [cytotoxic, single point]",,,
O=C(Nc1ccc(Oc2ccc(Cl)cc2)c(Cl)c1)c1cc(I)cc(I)c1O,"inconclusive: 18.4 µM [inhibitor, single point]",,active: 19.5 µM,"inconclusive: 23.7 µM [inhibitor, single point]","inconclusive: 23.1 µM [inhibitor, single point]",,,,,,inactive,,inactive,,,"inconclusive: 39.8 µM [cytotoxic, single point]",,,
